B1: TPR 5TU (parent)
chain: GGAUCUUCUCGAUCUAACAAAAAAGACAAAUCUGCCACAAAGCUUGAGAGCAUCUUCGGAUGCAGAGGCGGCAGCCUUCGGUGGCGCGAUAGCGCCAACGUUCUCAACUAUGACACGCAAAACGCGUGCUCCGUUGAAUGGAGUUUAUCAUG

This sample is rich in variants without activity.

In this data set the parent is B1. In words: polymerase ribozyme fitness, log enrichment relative to wild type (log ratio); higher = more active; in vitro selection for triplet polymerase activity. The method, boiled down:
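For each subunit of a heterodimeric triplet polymerase ribozyme, a mutant library was built by PCR and transcribed, then taken through a single in vitro selection round in triplicate. Selection involved annealing to a biotinylated primer, the partner subunit and triplets, incubation frozen at −7 °C, gel excision of extended constructs, capture on streptavidin beads and RT-PCR. Genotypes were retained after Illumina sequencing of inputs and outputs only with ≥10 input reads and ≥1 read in each output. Fitness is defined as the logarithm of a genotype's enrichment relative to wild-type enrichment, using inverse-variance-weighted averages across replicates, with the logarithm taken to base 2.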
Regarding GGAUCUUCUCGAUCUAACAAAAAAGACAAAUCUGCCUCAAAGCUUGAGAGCAUCUUCGGAUGCAGGGGCGGCAGCCUUCGGUGGCGCGAUAGCGCCAACGUUCUCAACUAUGACACGCAAAACGCGUGCUCCGUUGAAUGGAGUUUAUUAUC [A37U A66G C149U G152C], the “polymerase ribozyme fitness (log ratio)” value is no more than -4.2.
On to GGAUCUUCUCGAUCUAACAAAAAAGACAAAUCUGCCUCAAAGCUUGAGAGCAUCUUCGGAUGCAGAGGCGGCAGCCUUCGGUUGCGCGAUAGCGCCAACGUUCUCAACUAUGACACGCAAAACGCGUGCUCCGUUGAAUCGAGUUUAUCAUG [A37U G83U G140C], for which the “polymerase ribozyme fitness (log ratio)” value was no more than -4.2.
For GGAUCUUCUCGAUCUAACAAAAAAGACAAAUCUGCCUCAAAGCUUGAGAGCAUCUUCGGAUGUAGAGGUGGCAGCCUUCGGUGGCGCGAUAGCGCCAAUGUACUCAACUAUGACACGCAAAACGCGUGCUCCGUUGAAUGGAGUUUAUCAUG [A37U C63U C69U C99U U102A] the value was no more than -4.2; for GGAUCUUCUCGAUCUAACAAAAAAGACAAAUCUGCCUCAAAGCUUGAGAGUAUCUUCGGAUGCAGAGGCGGCAGCCUUCGGUGGCGCGAUAUCGCCAACGUUCUCAACUAUGACACGCAAAACGCGUGCUCCGUUGAAUGGAGUUUAUCAUG [A37U C51U G92U], -2.25; for GGAUCUUCUCGAUCUAACAAAAAAGACAAAUCUGCCUCAAAGCUUGAGAGCAUCUUCGGAUGCAGAGGCGGCAGCCUUCGGUGGCGCGAUAGCACCAACGUUCUCAACUAUGACACGCAAAACGCGUGCUCCGUUGAAUGGAGUUUAUCAUG [A37U G94A], -1.
Turning to GGAUCUUCUCGAUCUAACAAAAAAGACAAAUCUGCCUCAAAGCUUGAGAGCAUCUUCGGAUGCAGAGGCGGCAGACUUCGGUGGUGCGAUAGCGCCAACGUUCUCAACUAUCACACGCAAAACCCGUGCUCGGUUGAAUGGGGUAUAUCAUG [A37U C75A C85U G112C G124C C132G A142G U145A], the “polymerase ribozyme fitness (log ratio)” value was no more than -4.2.
GGAUCUUCUCGAUCUAACAAAAAAGACAAAUCUGCCUCAAAGCUUGAGAGCAUCUUCGGAUGCAGAGGCGGCAGCCUUCGGUGGCGCGAAAGUGCCAACGUUCUCCACUAUGACACGCAAAACGCGUGCUCCGUUGAAUGGAGUUUAUCAUG [A37U U90A C93U A106C]: the “polymerase ribozyme fitness (log ratio)” value is no more than -4.2.
The figure for GGAUCUUCUCGAUCUAACAAAAAAGACAAAUCUGCCUGAAAGCUUGAGAGCAUCUUCGGAUGCAGAGGCGGCAGCCUUCGGUGGCGCGAUAGCGCCCACGUUCUCAACUAUGACACGCAAAACGCGUGCUCCGUUGAAUGGAGUUUAUCAUG [A37U C38G A97C] is -1.69; for GGAUCUUCUCGAUCUAACAAAAAAGACAAAUCUGCCUCAAAGCUUGAGAGCAUCUUAGGAUGGAGAGGCGGCAGACUUCGGUGGCGCGAUAGCGCCAACGUUCUCAAUUAUGACCCGCAAAACGCGUGCGCCGUUGAAUGGAGUUUAUCAUG [A37U C57A C63G C75A C108U A115C U130G] it is no more than -4.2; for GGAUCUUCUCGAUCUAACAAAAAAGACAAAUCUGCCAAAAAGCUUGAGUGCAUCUGCGGAUGCAGAGGCGGCAGCCUUCGGUGGCGCGACAGCGCCAACGUUCUCAACUAUGACACGCAAAACGCGUGCUCCGUUGAAUGGAGUUUAUCAUG [C38A A49U U56G U90C] it is no more than -4.2.
For GGAUCUUCUCGAUCUAACAAAAAAGACAAAUCUGCCUCAAAGCUUGAGAGCAUCUUCGGAUGCAGAGGCGGCAGCCUUCGGUGGCGCGAUAGCGCCAACGGUCUCAACUAUGACACGCAAAACGCGUGCUCCGGUGAAUGAAGUUUAUCAUG [A37U U101G U134G G141A] the value was -4.08; for GGAUCUUCUCGAUCUAACAAAAAAGACAAAUCUGCCAAAAAGCUUGUGACCAUCUUCGGAUGCAGAGGCGGCAGCCUUCGGUGGCGCGAUUGCGCCAACGUUCUCAACUAUGACACGCAAAACGCGUGCUCCGUUGAAUGGAGUUUAUCAUG [C38A A47U G50C A91U], no more than -4.2; for GGAUCUUCUCGAUCUAACAAAAAAGACAAAUCUGCCUCAAAGCUUGAGAGCAUCUUCGGAUGCAGAGGCGGCAGCCUUCGGUCGCGCGAUCGCGCCAGCGUUCUCAACUAUGACACGCAAAACUCGUGCUCCGUUGAAUGGAGUUUAUCAUG [A37U G83C A91C A98G G124U], no more than -4.2.
For the variant GGAUCUUCUCGAUCUAACAAAAAAGACAAAUCUGCCUCAAAGCUUGAGAGCAUCUUCGGAUGCAGAGGCGGCAGCCUUCGGUGACGCGAUAGCGCCAACGUCCUCAACUAUGACACGCAAAAGGCGUGCUCCGUUGAAUGGAGUUUAUCAUG [A37U G84A U102C C123G], the “polymerase ribozyme fitness (log ratio)” value was -4.19.
The figure for GGAUCUUCUCGAUCUAACAAAAAAGACAAAUCUGCCUCAAAGCUUGAGAGCAUCUUGGGAUGCAGAGGCGGCAGCCUUCGGUGACGCGAUAGCGCCAACGUUCUAAACUAUGACACGCAAAACGCGUGCUCCGUUGAAUGGAAUUUAUCAUG [A37U C57G G84A C105A G143A] is no more than -4.2.
For GGAUCUUCUCGAUCUAACAAAAAAGACAAAUCUGCCUCAAAGUUUGAGAGCAUUUUCGGAUGCAGAGGCGGCAGCCUUCGGUGGCGCGAUAUCGCCAACGUUCUCUACUAUGACACGCAAAACGCGUGCUCCGUGGAAUGCAGUUUAUCAUG [A37U C43U C54U G92U A106U U135G G141C] the value was no more than -4.2.
The figure for GGAUCUUCUCGAUCUAACAAAAAAGACAAAUCUGCCUCAAAGCUUGAGAGCAUUUUCGGAUGCAGAGGCGGCAGCCUUCGGUGGCGCGAUAGCGGCAACGUUCUCAACUAUGACACGCAAAACGCGUGCUCCGUUGGAUGGAGUUUAGCAUG [A37U C54U C95G A137G U148G] is no more than -4.2; for GGAUCUUCUCGAUCUAACAAAAAAGACAAAUCUGCCUCAAAGCUUGAGAGCAUCUUCGGAAGCAGAGGCGGCAGCCUUCGGUGGCGCGCUAGCGCAACCGUUCACAACUAUGACACGCAAAACGCGUGCUCCGUUGAAUGGAGUUUAUCAUG [A37U U61A A89C C96A A98C U104A] it is no more than -4.2.
Regarding GGAUCUUCUCGAUCUAACAAAAAAGACAAAUCUGCCUCAAAGCUUGAGAGCAUCUUCGGAUCCAGAGGCGGCAGCCUUCGGUGGCGCGAUAGCGCAAACGUUCUCAACUAUGACACGCAAAACGCGGGCUCCGUUGAAUGGAGUUUAUCAUG [A37U G62C C96A U127G], the “polymerase ribozyme fitness (log ratio)” value is no more than -4.2.

For the origin of these results see the RNAGym collection of RNA variant scans (doi:10.1073/pnas.2313332121).
